The target of assay [1] is Myc-STUB1 (UniProt Q9UNE7). The assay can be described thus: co-IP; HEK293T with Myc-STUB1 plasmids together with or without Flag-GOT2 or Flag-GOT1 plasmids, 48 h; lysates immunoprecipitated with anti-Myc magnetic beads; GOT2 knockdown also tested.
The target in assay [2] is T1, HA-tagged GOT2 (UniProt P00505).
T1 sequence: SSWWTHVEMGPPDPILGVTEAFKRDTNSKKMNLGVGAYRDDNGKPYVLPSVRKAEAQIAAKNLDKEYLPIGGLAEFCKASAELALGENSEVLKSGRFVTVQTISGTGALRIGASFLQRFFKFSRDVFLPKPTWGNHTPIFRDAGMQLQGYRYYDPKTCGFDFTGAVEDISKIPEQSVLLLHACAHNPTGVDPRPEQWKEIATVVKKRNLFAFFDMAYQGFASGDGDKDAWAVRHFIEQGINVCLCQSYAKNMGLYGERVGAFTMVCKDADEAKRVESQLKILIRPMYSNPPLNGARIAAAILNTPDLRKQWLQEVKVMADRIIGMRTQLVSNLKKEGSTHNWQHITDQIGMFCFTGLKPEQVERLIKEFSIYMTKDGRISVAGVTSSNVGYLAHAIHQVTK
The assay can be described thus: co-IP; HEK293T co-transfected with HA-GOT2 and Flag-tagged STUB1 (full length or deletion mutants); lysates immunoprecipitated by the tags (anti-Flag magnetic beads for the deletion mutants, 24 h), blotted for HA and Flag.

The chains behind the UniProt entries cited, without tags or fusion partners.
UniProt Q9UNE7: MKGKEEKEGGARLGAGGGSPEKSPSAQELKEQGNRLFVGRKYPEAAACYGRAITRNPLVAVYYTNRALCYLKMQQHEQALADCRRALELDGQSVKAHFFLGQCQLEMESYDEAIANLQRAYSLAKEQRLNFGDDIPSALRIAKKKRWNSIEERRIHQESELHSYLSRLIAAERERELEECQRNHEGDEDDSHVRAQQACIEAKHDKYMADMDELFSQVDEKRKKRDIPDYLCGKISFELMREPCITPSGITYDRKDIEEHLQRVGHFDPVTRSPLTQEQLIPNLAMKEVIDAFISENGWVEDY
UniProt P17174: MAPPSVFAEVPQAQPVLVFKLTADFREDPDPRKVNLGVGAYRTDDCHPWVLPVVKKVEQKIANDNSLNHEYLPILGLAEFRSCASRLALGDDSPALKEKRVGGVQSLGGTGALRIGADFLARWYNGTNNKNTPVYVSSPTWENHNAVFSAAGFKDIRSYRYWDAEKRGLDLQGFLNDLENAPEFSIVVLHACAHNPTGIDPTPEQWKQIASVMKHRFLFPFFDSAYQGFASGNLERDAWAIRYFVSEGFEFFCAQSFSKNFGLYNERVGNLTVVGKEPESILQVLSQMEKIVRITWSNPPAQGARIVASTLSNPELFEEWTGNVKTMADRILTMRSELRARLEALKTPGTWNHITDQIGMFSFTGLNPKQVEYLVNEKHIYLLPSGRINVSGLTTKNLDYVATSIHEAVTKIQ

The target in assay [3] is Purified recombinant STUB1 protein (UniProt Q9UNE7). The assay can be described thus: pull-down; purified recombinant STUB1 from bacteria incubated with extracts of HA-GOT2-transfected HEK293T cells, blotted with HA-tag antibody; cell-free conditions; only the target purified.
The target of assay [4] is Flag-tagged full-length STUB1 (UniProt Q9UNE7). The assay can be described thus: co-IP; HEK293T co-transfected with HA-GOT2 and Flag-tagged STUB1 (full length or deletion mutants); lysates immunoprecipitated by the tags (anti-Flag magnetic beads for the deletion mutants, 24 h), blotted for HA and Flag.
Assay [5] has as its target endogenous STUB1 (human (endogenous in T24 and UC3)) (UniProt Q9UNE7). Nature of the assay: co-IP; UC3 or T24 cell lysates immunoprecipitated with control IgG, anti-STUB1 or anti-GOT2 antibody; blotted with the indicated antibodies.

Results are given in words; binding and its absence hold for the method and conditions named. In cells and extracts the contact can be indirect. Some results given as binding are weak or reduced against the parent protein; the word gives no strength. For part of these data: Sequences can lack the tags named with a protein.

Take “Flag-GOT1 (from UniProt P17174 1-413) (enzyme)”: the binding result in assay [1] was “no binding”.
Take “Flag-tagged full-length STUB1 (from UniProt Q9UNE7 1-303) (enzyme)”: the binding result in assay [2] is “binds”.

B1: HA-tagged GOT2 (enzyme, UniProt P00505 30-430)
chain: T1 sequence
With B1, the binding result in assay [3] and in assay [4] was “binds” in each case.

B2: Flag-GOT2 (enzyme, UniProt P00505 30-430)
chain: T1 sequence
Take B2: the binding entry in assay [1] is given as “binds”.

B3: endogenous GOT2 (enzyme, UniProt P00505 30-430)
chain: T1 sequence
Take B3: the binding entry in assay [5] is on record as “binds”.

Source of the values: PMC12255758.
